Reference: the supplement of paper PMC3334620
Whole data set: some 33,000 sequences, median “E-score (-0.5 to 0.5)” near -0.032, cut for the highest 2% near 0.36. Some of the results follow.

target: T1, Sko1 (UniProt Q02100); test: PBM E-score (8-mer binding enrichment) (E-score (-0.5 to 0.5)); higher = stronger / more preferred TF binding; most listed sequences are background and not binding sites; conditions: protein concentration: 200 nM; construct: GST-full length
T1 sequence: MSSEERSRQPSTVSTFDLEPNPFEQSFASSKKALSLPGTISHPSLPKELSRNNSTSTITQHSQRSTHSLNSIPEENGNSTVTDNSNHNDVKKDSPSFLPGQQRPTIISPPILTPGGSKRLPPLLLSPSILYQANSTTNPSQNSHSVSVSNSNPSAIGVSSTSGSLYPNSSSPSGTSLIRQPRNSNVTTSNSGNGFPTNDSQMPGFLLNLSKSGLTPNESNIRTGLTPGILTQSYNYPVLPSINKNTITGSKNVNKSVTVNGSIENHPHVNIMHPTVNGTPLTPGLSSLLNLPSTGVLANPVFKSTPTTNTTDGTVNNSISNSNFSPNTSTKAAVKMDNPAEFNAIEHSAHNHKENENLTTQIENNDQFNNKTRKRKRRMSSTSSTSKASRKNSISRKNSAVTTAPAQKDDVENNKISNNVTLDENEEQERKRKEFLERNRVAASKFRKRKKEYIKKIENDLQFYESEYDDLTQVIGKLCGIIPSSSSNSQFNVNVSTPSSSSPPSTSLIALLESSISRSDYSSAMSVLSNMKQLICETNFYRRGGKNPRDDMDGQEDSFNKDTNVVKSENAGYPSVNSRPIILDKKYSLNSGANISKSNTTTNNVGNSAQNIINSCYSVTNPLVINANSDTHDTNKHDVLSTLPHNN
Summary of the method: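 Universal all-10-mer Agilent arrays, fresh or stripped once, were converted to double-stranded form by primer extension. GST-tagged yeast transcription factors from PURExpress in vitro transcription/translation, full-length or DNA-binding domain only, were applied at about 100-200 nM and detected with fluorescent anti-GST. After masliner normalisation, the Universal PBM Analysis Suite scored each ungapped eight-base word together with its reverse complement by E-score.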

Sequence | PBM E-score
AGGTGAAG | -0.112
GTACATAA | 0.306
ACCGCCAC | -0.0653
ACTGCAGC | -0.191
ATCGGCAA | -0.0288
AAGGAATT | 0.0587
GCCGCCCC | -0.28
CTGCTGCC | -0.157
GGTAGACA | -0.103
ATCTCTTA | 0.109
ATGTGCAC | -0.0142
AGAGTCCC | -0.247
AAGCAGCT | -0.163
ACGAACGG | 0.0822
AATAGAGA | 0.0523
GCATAGAA | -0.113
CATCCCCA | -0.0522
CAAGCGAG | 0.0141
CATTAATA | 0.0996
GTGGAGTA | 0.0664
ACGTCTCG | 0.24
AACCGTGG | -0.188
ACCCAGTA | -0.0464
CCGCGCGC | -0.0942
GGTATCAA | -0.00387

Sequence | PBM E-score
AGCACGAG | -0.0498
AGGGATCC | -0.468
ATGTCGCG | 0.186
CGAGAACG | 0.0906
GCTGACCA | -0.222
GCGAGACC | -0.071
ACTTGTTC | 0.0603
AATGAATT | 0.198
GAAGAACC | -0.163
CCTCCCGC | -0.0494
ACAGGACC | -0.311
AGTGGGTA | -0.189
GTTGGGGA | -0.0358
AGCATCCC | -0.229
CACATGGG | -0.344
AGACCGAT | -0.152
CACGCAGA | 0.0703
AAAAACGA | 0.264
TATGGGAA | -0.0612
ACTACAAC | 0.0201
TCTCCGCA | -0.107
CAGGTACC | -0.136
GAAGCGTC | 0.0877
GAACGGGC | -0.259
CCTCCTCG | 0.0848

Sequence | PBM E-score
AGTCTGCG | -0.281
CCCGACAC | -0.249
ATCCCATA | -0.127
CAAGTTGG | -0.0274
CATGGTCC | -0.035
AGTCACAA | 0.0671
ATACTGCG | -0.146
GCAAGCCC | -0.0618
CATGCGGC | -0.0261
ATAGCAAA | 0.16
GTATGAGA | 0.125
ATGAGGAA | 0.0995
AAGCGCGG | -0.193
CCAAGCGA | -0.233
CACTCTCC | -0.134
CCTTAATA | 0.0379
GATGCATA | -0.0156
CCCCCCCA | -0.32
ACTGGTGA | -0.068
GGTACAGA | -0.136
CAAGATAG | -0.136
CATCCTGC | -0.163
GCGATTAC | 0.144
GACCGCGA | -0.305
CCACTCAC | -0.0544

Sequence | PBM E-score
GCGTGAGA | 0.179
ATTTTTGC | 0.216
AACCTTTC | -0.273
ATTGTCGG | -0.177
CGGAAAAG | -0.161
AAGAGAGT | -0.0858
AACCAGCA | -0.289
CTAGAGCC | -0.291
CCACAACC | 0.00126
CAATATTC | -0.143
CTCATTTA | 0.0493
CCAGGAAC | -0.196
ATGCGGGG | -0.185
AGGTCCAA | -0.225
CAGGATAA | -0.045
AACGGATT | 0.196
GCAATGGC | -0.166
TCAAGGCA | -0.274
AGCCAGAA | -0.162
CCTCGGAG | -0.269
AACTGAAG | 0.0972
AGACAGTC | -0.136
ACTGGGCG | -0.267
ACGGTGCA | -0.0207
CTCGGGAC | -0.22

Sequence | PBM E-score
TACTGTGA | -0.00209
GGGACACC | -0.374
ACGTTGTA | 0.394
CAAGTGCC | -0.277
TACAAAGA | 0.134
CCGGACCG | -0.17
ACCGATAG | -0.131
AGCAATCC | -0.149
CATCAGAG | 0.0221
CCGGCGGA | -0.16
GCTTGAAC | 0.176
CGTCCGCC | -0.0968
GATGCGGA | -0.124
GTCTCTCA | -0.084
ATAATACC | 0.138
CCTGGAAC | -0.0359
GGGTGCAC | -0.0658
CCAGATCA | 0.0904
AGGTCAAC | 0.0141
ATCGTCGA | -0.106
GCTAGAAC | -0.115
CCTGGCCA | -0.18
AAGGATGG | 0.00772
GGGCTGCA | -0.176
GGCTGTAC | -0.0592

Sequence | PBM E-score
ATCGACCC | -0.114
GGTAATGA | 0.115
CAAATTAG | 0.104
AAATGTTA | 0.218
AAGAGGGC | -0.201
ACTGTCCC | -0.247
TAGTCGCA | -0.145
CGAATGCG | 0.101
CTCAGCCA | -0.0969
GCCAAAAC | 0.0138
CACACCCG | -0.189
TAATAAAA | 0.302
CAGGGCCA | -0.32
CTGATTTC | 0.105
AACGCTAT | 0.12
ACGATCCT | -0.064
ATCTACGA | 0.0563
AAGTTATG | 0.231
ACTGGGAA | 0.0438
GAAGTATC | 0.0123
ACGTGAGT | 0.331
CAACCAGG | -0.155
AATCGCTC | -0.231
CCGGTAGA | -0.192
ACCTATAT | 0.257

Sequence | PBM E-score
TACGACCA | 0.0862
AGAGCACA | -0.166
AGCTCCAG | -0.228
CCGCGATA | -0.0398
CATTTTAA | 0.0361
GCACGAGA | -0.177
GCCGGTTA | -0.155
CAATTAGA | 0.128
CACGTGAC | 0.387
CATCATGG | 0.132
GCTTTTGA | -0.197
CCATCGGC | -0.301
CTCTTCAC | -0.203
AATAATCA | 0.194
AGAGAACT | -0.0485
CCGGTGTC | -0.192
ACTTGGTG | -0.268
ACAGCGTG | 0.0478
GACTTCAA | -0.0809
AGCCCGAA | -0.264
CAAGTCGA | -0.0679
CGCACGAA | 0.165
AAGAGCAG | -0.143
GGTTTATA | 0.0242
GATCGTCA | 0.321

Sequence | PBM E-score
ACTCGGAT | 0.05
TCGCTCCA | 0.0407
GCACAACA | 0.0216
AAGCTATG | 0.0671
CCCCGCGG | -0.257
AGGACGCA | -0.117
GGTCGCTA | -0.183
ACCACTGC | -0.196
ATATCAGA | -0.00647
TCCTCCGA | -0.278
GTAGATAA | 0.217
TCGCCGAA | 0.0579
CGTGTTTC | 0.246
ACACAAGT | 0.108
TAAGTCCA | 0.0254
GACGCCCC | -0.148
ATTCTCTA | 0.132
CCAGATGC | -0.0851
CCAAAGAC | -0.098
ATCGCCAG | -0.186
ATAACCAG | 0.159
AATGAGAT | 0.199
AAGCGTAG | -0.0528
GCTAGACC | -0.17
ATGCAGGA | -0.157

Sequence | PBM E-score
GTTACGTA | 0.483
CATAGAAA | 0.177
AACGATGT | 0.135
CAGGCATG | -0.0423
AGCGATCC | -0.148
AGCTCCCT | -0.288
GCTCTGGA | 0.0591
CAGCGACG | 0.0901
GCGGGATA | -0.181
AGGAGACG | -0.0804
CGCAAGAC | 0.101
CCACACAG | -0.208
GCCATATA | 0.0528
ATACATAA | 0.305
GGTAAATA | 0.0846
CCAATTCA | 0.0713
CTTAAGTA | 0.102
AGTTACCA | 0.0186
AGCATGGC | -0.179
